Measured values as given in PubChem BioAssay AID1259407 (Chemical Carcinogenesis Research Information System (CCRIS), 2018).
Entries after “also recorded” stand apart in the source; their conditions may differ. For part of its entries the source gives two or more results. The list is limited to them. The rule behind the calls is not given here. The source may hold further records. Results that share an entry differ, and nothing given here explains why; they may come from other doses, times, organisms or constructs than stated. Brackets tell where a record comes from. The letters are not those of the source and start again with each entry. Marks such as (2×) count equal records among those shown.

Tested on: CCRIS mutagenicity, Ames/micronucleus/aberration tests
Assay: CCRIS mutagenicity studies
[1] = Test System: AMES SALMONELLA TYPHIMURIUM, Strain/Indicator: TA98, Metabolic Activation: NONE, Method: PREINCUBATION
[2] = Test System: AMES SALMONELLA TYPHIMURIUM, Strain/Indicator: TA98, Metabolic Activation: NONE, Method: STANDARD PLATE
[3] = Test System: AMES SALMONELLA TYPHIMURIUM, Strain/Indicator: TA100, Metabolic Activation: NONE, Method: STANDARD PLATE
[4] = Test System: E. COLI, Strain/Indicator: WP2 UVRA, Metabolic Activation: RAT, LIVER, S-9, AROCLOR 1254, Method: STANDARD PLATE
[5] = End Point: IN VITRO CHROMOSOMAL ABERRATIONS, Test System: CHL CELLS, Metabolic Activation: NONE

`Cc1ccc(N)cc1[N+](=O)[O-]` was tested, and the mutagenic call [1] was “active; positive [study A] and inactive; negative [study B]”.

`ON=C1CCCCC1` was tested, and the mutagenic call (Test System: AMES SALMONELLA TYPHIMURIUM, Strain/Indicator: TA1535, Metabolic Activation: NONE, Method: PREINCUBATION) was “inactive; negative [study A] and active; positive [study B]”.

`NC(=O)NO` was tested, and the mutagenic call [2] was “inactive; negative [study A] and active; positive [study B]”, the mutagenic call [3] was “inactive; negative [study A] and active; positive [study B]” and the mutagenic call (Test System: AMES SALMONELLA TYPHIMURIUM, Strain/Indicator: TA102, Metabolic Activation: NONE, Method: STANDARD PLATE) was “inactive; negative [study A] and active; positive [study B]”.

With `c1cc2ccc3cccc4ncc(c1)c2c34` the mutagenic call [2] was “inactive; negative [study A] and active; positive [study B]” and the mutagenic call [3] was “inactive; negative [study A] and active; positive [study B]”.

`[O-]/[N+](=N\O)c1ccccc1` was tested, and the mutagenic call (Test System: AMES SALMONELLA TYPHIMURIUM, Strain/Indicator: TA98, Metabolic Activation: HAMSTER, LIVER, S-9, Method: STANDARD PLATE) was “inactive; negative [1 to 100 µg/plate] and active; positive [10 to 1000 µg/plate]”, the mutagenic call (Test System: AMES SALMONELLA TYPHIMURIUM, Strain/Indicator: TA1538, Metabolic Activation: MOUSE, LIVER, S-9, AROCLOR 1254, Method: STANDARD PLATE) was “inactive; negative [0.3 to 1000 µg/plate] and active; positive [1 to 1000 µg/plate]” and the mutagenic call (Test System: AMES SALMONELLA TYPHIMURIUM, Strain/Indicator: TA1538, Metabolic Activation: MOUSE, LIVER, S-9, Method: STANDARD PLATE) was “inactive; negative [0.3 to 1000 µg/plate] and active; positive [1 to 333 µg/plate]”. For the same molecule, the mutagenic call (Test System: AMES SALMONELLA TYPHIMURIUM, Strain/Indicator: TA1538, Metabolic Activation: NONE, Method: STANDARD PLATE) was “inactive; negative [0.3 to 333.3 µg/plate] and active; positive [10 to 1000 µg/plate]”, the mutagenic call (Test System: AMES SALMONELLA TYPHIMURIUM, Strain/Indicator: TA1538, Metabolic Activation: RAT, LIVER, S-9, Method: STANDARD PLATE) was “inactive; negative [0.3 to 333.3 µg/plate] and active; positive [10 to 1000 µg/plate]” and the mutagenic call (Test System: E. COLI, Strain/Indicator: WP2 UVRA, Metabolic Activation: HAMSTER, LIVER, S-9, AROCLOR 1254, Method: STANDARD PLATE) was “inactive; negative [0.3 to 1000 µg/plate] and active; positive [1 to 1000 µg/plate]”. For the same molecule, the mutagenic call [4] was “inactive; negative [0.3 to 1000 µg/plate] and active; positive [1 to 1000 µg/plate]”.

In the case of `CCOS(C)(=O)=O`, the mutagenic call (Test System: E. COLI, Strain/Indicator: WP2 UVRA, Metabolic Activation: NONE, Method: STANDARD PLATE) is reported as “active; positive [study A] and inactive; negative [study B]” and the mutagenic call [4] is reported as “active; positive [study A] and inactive; negative [study B]”.

With `C=C1C[C@@]23CC[C@H]4[C@@](C)(CCC[C@@]4(C)C(=O)O[C@@H]4O[C@H](CO)[C@@H](O)[C@H](O)[C@H]4O)[C@@H]2CC[C@]1(O[C@@H]1O[C@H](CO)[C@@H](O)[C@H](O)[C@H]1O[C@@H]1O[C@H](CO)[C@@H](O)[C@H](O)[C@H]1O)C3` the mutagenic call [1] was “inactive; negative [study A] and active; positive [study B]”.

`c1ccc(Nc2ccc(Nc3ccccc3)cc2)cc1` was tested, and the mutagenic call (End Point: IN VITRO CHROMOSOMAL ABERRATIONS, Test System: CHINESE HAMSTER LUNG CELLS (CHL), Metabolic Activation: NONE) was “active; positive (structural changes); also recorded: active; positive (structural changes); authors report results as equivocal”.

In the case of `CC(C)NCC1CCc2cc(CO)c([N+](=O)[O-])cc2N1` (stereo not given), the mutagenic call [3] is reported as “inactive; negative [study A] and active; positive [study B]”.

`Nc1cc(N)cc(Cl)c1` was tested, and the mutagenic call [5] was “active; positive (structural and ploidy changes); also recorded: inactive; negative”.

With `CC(C)(C)C(=O)C(Oc1ccc(Cl)cc1)n1ccnc1` (stereo not given) the mutagenic call (Test System: Mouse lymphoma L5178Y/TK+/- cells, Strain/Indicator: WP2 uvrA (pKM101), Metabolic Activation: None, Method: Suspension/plate) was “inactive; negative and active; positive”.

With `Clc1ccccc1` the mutagenic call (End Point: In vivo chromosomal aberrations, Test System: Bone marrow, Species: Rat, Strain/Sex: Norway/Male, Route: Intraperitoneal) was “active; positive (at highest dose only) and inactive; negative (2×)” and the mutagenic call (End Point: In vivo micronucleus, Test System: Bone marrow, Species: Rat, Strain/Sex: Norway/Male, Route: Intraperitoneal) was “active; positive (at highest dose only) and inactive; negative (2×)”.

In the case of `O=[N+]([O-])c1ccc(Cl)cc1`, the mutagenic call (End Point: IN VITRO CHROMOSOMAL ABERRATIONS, Test System: CHINESE HAMSTER OVARY CELLS, Metabolic Activation: NONE) is reported as “inactive; negative; also recorded: active; positive; precipitation occurred at 900 ug/ml” and the mutagenic call (End Point: IN VITRO CHROMOSOMAL ABERRATIONS, Test System: CHINESE HAMSTER OVARY CELLS, Metabolic Activation: RAT, LIVER, S-9, AROCLOR 1254) is reported as “inactive; negative; precipitation occurred at 5000 ug/ml; also recorded: active; positive”.

For `Nc1ccc([N+](=O)[O-])c(O)c1`, the mutagenic call (Test System: AMES SALMONELLA TYPHIMURIUM, Strain/Indicator: TA98, Metabolic Activation: RAT, LIVER, S-9, AROCLOR 1254, Method: STANDARD PLATE) was “inactive; negative and active; positive” and the mutagenic call (Test System: AMES SALMONELLA TYPHIMURIUM, Strain/Indicator: TA1538, Metabolic Activation: RAT, LIVER, S-9, AROCLOR 1254, Method: STANDARD PLATE) was “inactive; negative and active; positive”.

`O=NN1CCCCC1` was tested, and the mutagenic call (Test System: AMES SALMONELLA TYPHIMURIUM, Strain/Indicator: TA100, Metabolic Activation: PIG, LIVER, S-9, Method: PREINCUBATION) was “inactive; negative [study A] and active; positive [study B]”, the mutagenic call (Test System: AMES SALMONELLA TYPHIMURIUM, Strain/Indicator: TA100, Metabolic Activation: RAT, LIVER, S-9, Method: PREINCUBATION) was “inactive; negative [study A] and active; positive [study B]” and the mutagenic call (Test System: MOUSE LYMPHOMA, Strain/Indicator: L5178Y (TK+/TK-), Metabolic Activation: NONE, Method: SUSPENSION/PLATE) was “inactive; negative [study A]; also recorded: inactive; negative. reevaluation of results: negative [study B]”. For the same molecule, the mutagenic call (Test System: MOUSE LYMPHOMA, Strain/Indicator: L5178Y (TK+/TK-), Metabolic Activation: RAT, LIVER, S-9, AROCLOR 1254, Method: SUSPENSION/PLATE) was “active; positive [study A]; also recorded: active; positive. reevaluation of results: positive [study B]; also recorded: active; positive [study C]”.

In the case of `CCCC=O`, the mutagenic call (End Point: In vitro chromosomal aberrations, Test System: Chinese hamster lung (CHL/IU) cells, Metabolic Activation: None) is reported as “active; positive (structural changes and ploidy). ploidy not dose related (2×); also recorded: active; positive (structural changes and ploidy)”.

`ClCC(Cl)(Cl)Cl` was tested, and the mutagenic call (End Point: IN VITRO CHROMOSOMAL ABERRATIONS, Test System: CHINESE HAMSTER LUNG FIBROBLAST CELLS (CHL/IU), Metabolic Activation: NONE) was “active; positive (ploidy) and inactive; negative”.

In the case of `CN(C)c1ccc(N=Nc2ccccc2)cc1`, the mutagenic call (Test System: AMES SALMONELLA TYPHIMURIUM, Strain/Indicator: TA100, Metabolic Activation: RAT, LIVER, S-9, AROCLOR 1254 (10%), Method: PREINCUBATION) is reported as “inactive; negative and active; positive”.

With `C#CC` the mutagenic call [5] was “active; positive (structural changes) and inactive; negative”.
